Laboratory results taken from patent publication US20250122202A1, “EGFR INHIBITOR, PREPARATION METHOD THEREFOR AND USE THEREOF” (SHANDONG NEW TIME PHARMACEUTICAL CO., LTD., priority 2021, published 2025).
Like-named read-outs stand apart in the source and are kept apart here.

Experiments:
[1] = system: KC-0116:BaF3 EGFR-Del19/T790M/C797S; assay: cells; conditions: KC-0116, 72 h, read-out: cell proliferation inhibition IC50 (μM) KC-0116, 72 h, CCK-8
[2] = system: KC-0122:BaF3 EGFR-L858R/T790M/C797S; assay: cells; conditions: KC-0122, 72 h, read-out: cell proliferation inhibition IC50 (μM) KC-0122, 72 h, CCK-8

For `CN1CCN(c2ccc(Nc3nc(NN4CCOCC4)c4c(C(=O)c5ccc(F)cc5)c[nH]c4n3)cc2)CC1` [Example 38], the IC50 [1] was 0.1 to 1 µM.
`CN1CCN(c2ccc(Nc3nc(N[C@H]4CC[C@@H](CO)CC4)c4c(C(=O)c5ccc(F)cc5)c[nH]c4n3)cc2)CC1` [Example 60] gave an IC50 [1] of under 0.1 µM, an IC50 ([1]; Table 5 numeric) of 0.038 µM and an IC50 [2] of under 0.1 µM. For the same compound, the IC50 ([2]; Table 5 numeric) was 0.088 µM.
`O=C(c1ccc(F)cc1)c1c[nH]c2nc(Nc3ccc(N4CCOCC4)cc3)nc(N[C@H]3CCCN(S(=O)(=O)C4CC4)C3)c12` [Example 30] gave an IC50 [1] of under 0.1 µM and an IC50 [2] of 0.1 to 1 µM.
`C=CC(=O)N1CC[C@H](Nc2nc(Nc3ccc(N4CCN(C)CC4)cc3)nc3[nH]cc(C(=O)c4ccccc4)c23)C1` [Example 33] showed an IC50 [1] of 0.1 to 1 µM.
`CN1CCN(c2ccc(Nc3nc(NC4CCCOC4)c4c(C(=O)c5ccc(F)cc5)c[nH]c4n3)cc2)CC1` (centres unmarked) [Example 74] gave an IC50 [1] of 0.1 to 1 µM and an IC50 [2] of 0.1 to 1 µM.
Compound `CN1CCC(Nc2nc(Nc3ccc(N4CCOCC4)cc3)nc3[nH]cc(C(=O)c4ccc(F)cc4)c23)CC1` [Example 100] has an IC50 [1] of under 0.1 µM.
`CC(C)N1CCC(Nc2nc(Nc3ccc(N4CCOCC4)cc3)nc3[nH]cc(C(=O)c4ccc(F)cc4)c23)CC1` [Example 99] was tested, and the IC50 [1] was under 0.1 µM and the IC50 ([1]; Table 5 numeric) was 0.076 µM.
`CN1CCN(c2ccc(Nc3nc(Nc4cccc(CO)c4)c4c(C(=O)c5ccc(F)cc5)c[nH]c4n3)cc2)CC1` [Example 15] was tested, and the IC50 [1] was 0.1 to 1 µM.
Compound `O=C(c1ccc(F)cc1Cl)c1c[nH]c2nc(Nc3ccc(N4CCOCC4)cc3)nc(N[C@H]3CC[C@H](CO)CC3)c12` [Example 105] has an IC50 [1] of under 0.1 µM and an IC50 ([1]; Table 5 numeric) of 0.085 µM.
Compound `O=C(c1ccc(F)cc1)c1c[nH]c2nc(Nc3ccc(N4CCOCC4)cc3)nc(N[C@H]3CCN(S(=O)(=O)C4CC4)C3)c12` [Example 31] has an IC50 [2] of 0.1 to 1 µM.
`CN1CCN(c2ccc(Nc3nc(N[C@H]4CCN(S(=O)(=O)C5CC5)C4)c4c(C(=O)c5cccc(F)c5)c[nH]c4n3)cc2)CC1` [Example 34] showed an IC50 [1] of 0.1 to 1 µM.
With `COc1cc(N2CCOCC2)ccc1Nc1nc(N[C@H]2CC[C@H](CO)CC2)c2c(C(=O)c3ccc(F)cc3)c[nH]c2n1` [Example 81] the IC50 [1] was under 0.1 µM and the IC50 ([1]; Table 5 numeric) was 0.077 µM.
Work on `COc1nn(C2CCN(C)CC2)cc1Nc1nc(N[C@H]2CC[C@H](CO)CC2)c2c(C(=O)c3ccc(F)cc3)c[nH]c2n1` [Example 113] yielded an IC50 [1] of 0.1 to 1 µM.
With `CN1CCN(c2ccc(Nc3nc(N[C@H]4CCN(S(=O)(=O)C5CC5)C4)c4c(C(=O)c5ccc(F)c(F)c5)c[nH]c4n3)cc2)CC1` [Example 36] the IC50 [1] was 0.1 to 1 µM.
Compound `CN1CCN(c2ccc(Nc3nc(NN4CCCCC4)c4c(C(=O)c5ccc(F)cc5)c[nH]c4n3)cc2)CC1` [Example 39] has an IC50 [1] of 0.1 to 1 µM.
`CC(=O)N1CC[C@H](Nc2nc(Nc3ccc(N4CCN(C)CC4)cc3)nc3[nH]cc(C(=O)c4ccc(F)cc4)c23)C1` [Example 54] was tested, and the IC50 [1] was 0.1 to 1 µM.
Compound `CN1CCN(c2ccc(Nc3nc(N[C@H]4CCN(S(=O)(=O)C5CC5)C4)c4c(C(=O)c5ccccc5)c[nH]c4n3)cc2)CC1` [Example 32] has an IC50 [1] of 0.1 to 1 µM.
Work on `COc1cc(N2CCN(C)CC2)ccc1Nc1nc(N[C@H]2CC[C@H](CO)CC2)c2c(C(=O)c3ccc(F)cc3)c[nH]c2n1` [Example 80] yielded an IC50 [1] of under 0.1 µM.
Compound `CN1CCC(n2cc(Nc3nc(N[C@H]4CC[C@H](CO)CC4)c4c(C(=O)c5ccc(F)cc5)c[nH]c4n3)cn2)CC1` [Example 111] has an IC50 [1] of 0.1 to 1 µM.
In the case of `CN1CCN(c2ccc(Nc3nc(N[C@H]4CCCN(S(=O)(=O)C5CC5)C4)c4c(C(=O)c5ccc(F)cc5)c[nH]c4n3)cc2F)CC1` [Example 28], the IC50 [2] is reported as 1 to 2 µM.
For `CN1CCN(c2ccc(Nc3nc(Nc4ccc(CO)nc4)c4c(C(=O)c5ccc(F)cc5)c[nH]c4n3)cc2)CC1` [Example 16], the IC50 [1] was 0.1 to 1 µM.
Work on `CN1CCN(c2ccc(Nc3nc(N[C@H]4CC[C@H](N)CC4)c4c(C(=O)c5ccc(F)cc5)c[nH]c4n3)cc2)CC1` [Example 90] yielded an IC50 [1] of 0.1 to 1 µM.
Compound `O=C(c1ccc(F)cc1)c1c[nH]c2nc(Nc3ccc(N4CCOCC4)c(F)c3)nc(N[C@H]3CC[C@H](CO)CC3)c12` [Example 82] has an IC50 [1] of under 0.1 µM.
`C=CC(=O)N1CC[C@H](Nc2nc(Nc3ccc(N4CCN(C)CC4)cc3)nc3[nH]cc(C(=O)c4cccc(F)c4)c23)C1` [Example 35] gave an IC50 [1] of 0.1 to 1 µM.
